The full data set covers some 21,000 targets. This sample favours those with the largest changes.
Compound: CC1Cc2ccccc2N1C(=O)C1CCCN(C1)C(=O)CCl (mixture of isomers) [TRIM25 ligand 11 (diastereomer mixture)]
Assay: probe-labelled cysteine peptide fold change vs DMSO (competition) (log2 fold change); higher = less target engagement (more negative = stronger competition)
Conditions: THP-1, incubation time: 4 h
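Further: competitive chemoproteomic profiling in live THP-1 cells with an iodoacetamide desthiobiotin (IA-DTB) probe, comparing probe-labelled peptide intensities in compound-treated cells against DMSO-treated controls.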

## ALG1L2_C9J202_180_CLHELVK<|>ALG1L_Q6GMV1_92_CLHELVK<|>ALG1_Q9BT22_396_CLHELVK (UniProt Q9BT22+Q6GMV1+C9J202)
10 µM
  probe-labelled cysteine peptide fold change: 0.157
50 µM
  probe-labelled cysteine peptide fold change: 0.122

## BAZ1B_Q9UIG0_1231_AFHLFCLRPALYEVPDGEWQCPACQPATAR (UniProt Q9UIG0)
Sequence of UniProt Q9UIG0 (Q9UIG0 whole entry, looked up): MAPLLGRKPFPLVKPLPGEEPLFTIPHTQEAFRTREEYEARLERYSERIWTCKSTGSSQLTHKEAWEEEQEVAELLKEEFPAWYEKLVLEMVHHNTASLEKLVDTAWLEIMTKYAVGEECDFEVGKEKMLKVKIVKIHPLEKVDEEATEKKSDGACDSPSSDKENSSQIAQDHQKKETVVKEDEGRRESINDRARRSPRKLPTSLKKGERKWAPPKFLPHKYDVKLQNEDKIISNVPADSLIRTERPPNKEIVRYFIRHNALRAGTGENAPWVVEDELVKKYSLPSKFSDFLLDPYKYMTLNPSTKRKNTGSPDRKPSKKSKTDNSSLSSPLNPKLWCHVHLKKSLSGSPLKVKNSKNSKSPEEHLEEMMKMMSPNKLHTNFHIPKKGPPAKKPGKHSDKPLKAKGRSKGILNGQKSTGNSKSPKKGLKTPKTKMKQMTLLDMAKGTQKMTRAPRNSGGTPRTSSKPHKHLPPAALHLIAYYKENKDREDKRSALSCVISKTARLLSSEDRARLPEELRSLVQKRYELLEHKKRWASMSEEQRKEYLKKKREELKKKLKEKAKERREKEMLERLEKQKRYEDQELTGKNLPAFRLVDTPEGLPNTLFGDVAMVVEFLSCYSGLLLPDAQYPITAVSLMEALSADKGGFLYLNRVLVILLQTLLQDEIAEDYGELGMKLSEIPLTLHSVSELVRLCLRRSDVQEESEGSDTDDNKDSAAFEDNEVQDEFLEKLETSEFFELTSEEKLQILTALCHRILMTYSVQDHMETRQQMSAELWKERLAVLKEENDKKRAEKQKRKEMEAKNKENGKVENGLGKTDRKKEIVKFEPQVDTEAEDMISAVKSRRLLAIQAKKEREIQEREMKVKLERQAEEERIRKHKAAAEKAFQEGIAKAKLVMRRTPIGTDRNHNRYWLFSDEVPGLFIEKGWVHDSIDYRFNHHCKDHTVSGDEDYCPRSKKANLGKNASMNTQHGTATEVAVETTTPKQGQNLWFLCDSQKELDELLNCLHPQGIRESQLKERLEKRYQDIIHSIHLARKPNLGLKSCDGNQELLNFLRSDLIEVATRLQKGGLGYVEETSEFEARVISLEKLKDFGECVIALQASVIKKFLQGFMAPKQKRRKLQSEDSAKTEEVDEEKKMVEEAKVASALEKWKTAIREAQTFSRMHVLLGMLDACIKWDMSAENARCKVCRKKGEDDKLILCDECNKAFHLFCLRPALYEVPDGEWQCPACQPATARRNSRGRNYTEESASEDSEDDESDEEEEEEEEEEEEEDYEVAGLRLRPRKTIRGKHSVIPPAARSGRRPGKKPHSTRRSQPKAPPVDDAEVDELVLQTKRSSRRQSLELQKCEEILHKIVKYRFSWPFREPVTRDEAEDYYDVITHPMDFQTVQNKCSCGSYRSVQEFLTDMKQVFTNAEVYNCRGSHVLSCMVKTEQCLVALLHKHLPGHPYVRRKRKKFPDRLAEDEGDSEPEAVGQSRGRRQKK
10 µM
  probe-labelled cysteine peptide fold change: 0.0557
50 µM
  probe-labelled cysteine peptide fold change: 0.0194

## AKAP8L_Q9ULX6_128_LDMVPHLETDMMQGGVYGSGGERYDSYESCDSR (UniProt Q9ULX6)
10 µM
  probe-labelled cysteine peptide fold change: -0.329
50 µM
  probe-labelled cysteine peptide fold change: -0.712

## B4GAT1_O43505_159_VAMHLVCPSR (UniProt O43505+B4GAT1)
10 µM
  probe-labelled cysteine peptide fold change: 0.253
50 µM
  probe-labelled cysteine peptide fold change: 0.253

## ARPC5_O15511_45_FVDEEDGGDGQAGPDEGEVDSCLR (UniProt O15511)
10 µM
  probe-labelled cysteine peptide fold change: 0.0584
50 µM
  probe-labelled cysteine peptide fold change: 0.116

## ALG2_Q9H553_70_CAGDWLPR (UniProt Q9H553)
Sequence of UniProt Q9H553 (Q9H553 whole entry, looked up): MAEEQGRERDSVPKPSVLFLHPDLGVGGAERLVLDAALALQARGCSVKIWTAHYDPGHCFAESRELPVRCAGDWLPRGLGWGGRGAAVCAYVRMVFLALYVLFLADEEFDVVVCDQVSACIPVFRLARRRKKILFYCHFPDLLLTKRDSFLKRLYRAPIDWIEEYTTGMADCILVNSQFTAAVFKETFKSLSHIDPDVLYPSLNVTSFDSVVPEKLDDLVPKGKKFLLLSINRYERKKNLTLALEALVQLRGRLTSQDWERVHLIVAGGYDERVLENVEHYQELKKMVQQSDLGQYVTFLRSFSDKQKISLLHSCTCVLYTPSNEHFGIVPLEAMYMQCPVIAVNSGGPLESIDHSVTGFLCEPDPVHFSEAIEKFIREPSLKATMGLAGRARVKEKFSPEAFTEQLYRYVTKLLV
10 µM
  probe-labelled cysteine peptide fold change: -0.0109
50 µM
  probe-labelled cysteine peptide fold change: -0.0398

## ARMT1_Q9H993_398_KWEFSVPFHQALNGFHPAPLCTIR (UniProt Q9H993)
10 µM
  probe-labelled cysteine peptide fold change: -0.0702
50 µM
  probe-labelled cysteine peptide fold change: 0.0539

## ATP13A1_Q9HD20_336_SPQENLVPCDVLLLR (UniProt Q9HD20)
Sequence of UniProt Q9HD20 (Q9HD20 whole entry, looked up): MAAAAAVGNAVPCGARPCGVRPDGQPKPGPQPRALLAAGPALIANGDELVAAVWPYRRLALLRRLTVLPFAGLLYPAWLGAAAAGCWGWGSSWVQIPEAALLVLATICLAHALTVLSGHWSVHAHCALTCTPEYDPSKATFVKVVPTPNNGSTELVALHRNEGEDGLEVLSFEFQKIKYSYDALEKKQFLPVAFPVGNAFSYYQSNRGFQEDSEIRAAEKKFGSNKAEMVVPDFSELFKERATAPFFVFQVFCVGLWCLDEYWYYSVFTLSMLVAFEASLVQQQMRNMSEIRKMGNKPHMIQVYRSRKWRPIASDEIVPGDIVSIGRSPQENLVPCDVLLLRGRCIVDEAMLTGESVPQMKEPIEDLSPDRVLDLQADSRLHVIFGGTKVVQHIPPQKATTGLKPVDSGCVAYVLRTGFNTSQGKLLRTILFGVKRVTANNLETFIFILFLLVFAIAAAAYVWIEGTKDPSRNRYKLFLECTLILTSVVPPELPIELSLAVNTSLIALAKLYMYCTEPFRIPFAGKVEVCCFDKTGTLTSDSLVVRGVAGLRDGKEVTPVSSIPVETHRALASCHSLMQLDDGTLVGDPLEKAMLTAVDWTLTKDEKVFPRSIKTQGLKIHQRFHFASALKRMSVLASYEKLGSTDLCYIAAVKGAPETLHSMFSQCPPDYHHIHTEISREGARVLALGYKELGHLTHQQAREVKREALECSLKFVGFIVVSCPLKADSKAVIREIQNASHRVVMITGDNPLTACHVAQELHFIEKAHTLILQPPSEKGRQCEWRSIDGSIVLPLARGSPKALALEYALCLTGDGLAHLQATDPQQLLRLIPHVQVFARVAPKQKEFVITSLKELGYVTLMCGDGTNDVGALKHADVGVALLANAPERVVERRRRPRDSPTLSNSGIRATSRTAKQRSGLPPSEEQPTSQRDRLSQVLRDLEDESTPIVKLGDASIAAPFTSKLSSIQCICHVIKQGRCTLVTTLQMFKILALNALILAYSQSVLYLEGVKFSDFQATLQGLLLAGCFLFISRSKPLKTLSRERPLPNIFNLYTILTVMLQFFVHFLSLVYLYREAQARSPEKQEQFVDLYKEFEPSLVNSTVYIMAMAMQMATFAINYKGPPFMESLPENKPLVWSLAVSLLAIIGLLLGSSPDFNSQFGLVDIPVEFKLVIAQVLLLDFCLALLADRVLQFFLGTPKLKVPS
10 µM
  probe-labelled cysteine peptide fold change: -0.0527
50 µM
  probe-labelled cysteine peptide fold change: 0.0898

## ARHGAP4_P98171_330_VLEVHATVFCPPLR (UniProt P98171)
Sequence of UniProt P98171 (P98171 whole entry, looked up): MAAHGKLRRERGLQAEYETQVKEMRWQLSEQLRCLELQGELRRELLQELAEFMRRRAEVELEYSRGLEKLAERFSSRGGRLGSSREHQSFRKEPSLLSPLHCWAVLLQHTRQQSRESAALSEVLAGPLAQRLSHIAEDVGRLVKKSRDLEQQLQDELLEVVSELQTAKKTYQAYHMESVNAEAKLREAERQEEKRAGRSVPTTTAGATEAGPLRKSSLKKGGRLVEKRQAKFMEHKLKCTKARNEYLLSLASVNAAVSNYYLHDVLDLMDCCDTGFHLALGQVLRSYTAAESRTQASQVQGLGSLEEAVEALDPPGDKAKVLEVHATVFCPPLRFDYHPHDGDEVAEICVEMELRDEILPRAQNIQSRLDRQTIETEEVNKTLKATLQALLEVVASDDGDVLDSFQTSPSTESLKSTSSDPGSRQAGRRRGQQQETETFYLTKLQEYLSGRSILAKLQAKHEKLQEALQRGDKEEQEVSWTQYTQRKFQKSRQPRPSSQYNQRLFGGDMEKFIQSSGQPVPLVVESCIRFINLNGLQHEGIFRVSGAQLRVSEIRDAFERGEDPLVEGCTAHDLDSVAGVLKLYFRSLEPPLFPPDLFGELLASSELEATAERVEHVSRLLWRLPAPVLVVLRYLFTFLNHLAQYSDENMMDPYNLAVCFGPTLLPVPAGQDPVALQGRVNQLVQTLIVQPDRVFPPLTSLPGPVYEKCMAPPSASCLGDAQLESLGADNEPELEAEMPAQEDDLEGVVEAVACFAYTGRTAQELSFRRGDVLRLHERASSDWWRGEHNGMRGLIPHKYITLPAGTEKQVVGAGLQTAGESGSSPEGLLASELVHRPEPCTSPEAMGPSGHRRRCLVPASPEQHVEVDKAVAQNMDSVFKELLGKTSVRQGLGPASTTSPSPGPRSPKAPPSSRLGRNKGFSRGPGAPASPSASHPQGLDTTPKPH
10 µM
  probe-labelled cysteine peptide fold change: 0.0508
50 µM
  probe-labelled cysteine peptide fold change: -0.0246

## ANKLE1_Q8NAG6_124_DQDGLRPLDLALQQGHLECAR (UniProt Q8NAG6)
10 µM
  probe-labelled cysteine peptide fold change: 0.0735
50 µM
  probe-labelled cysteine peptide fold change: -0.0476

## ANAPC7_Q9UJX3_451_TLGANAQTLTLLATVCLEDPVTQEK (UniProt Q9UJX3)
Sequence of UniProt Q9UJX3 (Q9UJX3 whole entry, looked up): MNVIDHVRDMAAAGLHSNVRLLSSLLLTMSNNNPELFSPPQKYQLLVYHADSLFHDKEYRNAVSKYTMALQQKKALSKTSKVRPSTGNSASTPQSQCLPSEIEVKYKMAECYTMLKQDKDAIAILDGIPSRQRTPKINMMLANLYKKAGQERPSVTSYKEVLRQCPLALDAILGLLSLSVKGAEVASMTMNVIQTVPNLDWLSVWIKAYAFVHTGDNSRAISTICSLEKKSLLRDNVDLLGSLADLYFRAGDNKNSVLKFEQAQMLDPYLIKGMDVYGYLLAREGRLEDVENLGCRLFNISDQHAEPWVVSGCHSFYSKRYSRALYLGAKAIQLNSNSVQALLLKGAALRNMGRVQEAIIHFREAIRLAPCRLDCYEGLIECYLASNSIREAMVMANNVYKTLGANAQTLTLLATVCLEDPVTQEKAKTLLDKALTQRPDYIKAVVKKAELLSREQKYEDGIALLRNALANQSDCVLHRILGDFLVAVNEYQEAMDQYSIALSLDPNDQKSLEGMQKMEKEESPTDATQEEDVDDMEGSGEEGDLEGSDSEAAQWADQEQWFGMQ
10 µM
  probe-labelled cysteine peptide fold change: -0.0938
50 µM
  probe-labelled cysteine peptide fold change: -0.103

## ATP6V1H_Q9UI12_47_VNWQSYLQGQMISAEDCEFIQR (UniProt Q9UI12)
Sequence of UniProt Q9UI12 (Q9UI12 whole entry, looked up): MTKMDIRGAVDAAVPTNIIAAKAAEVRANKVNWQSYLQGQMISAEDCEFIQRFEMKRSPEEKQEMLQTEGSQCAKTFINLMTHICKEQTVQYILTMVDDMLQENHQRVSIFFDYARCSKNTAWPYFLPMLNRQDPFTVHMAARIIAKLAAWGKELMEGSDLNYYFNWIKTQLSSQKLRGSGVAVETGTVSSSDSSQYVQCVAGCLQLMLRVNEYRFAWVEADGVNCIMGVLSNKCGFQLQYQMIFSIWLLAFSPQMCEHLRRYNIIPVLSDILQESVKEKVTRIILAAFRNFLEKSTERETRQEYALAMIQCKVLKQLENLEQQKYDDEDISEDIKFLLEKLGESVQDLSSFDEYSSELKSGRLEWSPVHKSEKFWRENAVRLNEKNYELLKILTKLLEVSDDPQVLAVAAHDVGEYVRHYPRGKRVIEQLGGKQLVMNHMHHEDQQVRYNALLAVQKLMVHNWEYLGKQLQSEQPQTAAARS
10 µM
  probe-labelled cysteine peptide fold change: -0.861
50 µM
  probe-labelled cysteine peptide fold change: -0.546

Reference: the supplement of paper PMC12067093, “Discovery and optimisation of a covalent ligand for TRIM25 and its application to targeted protein ubiquitination” (Chemical Science, 2025)
